The campaign covered roughly 48,000 compounds. About 120 (0.25%) were called active. Inconclusive results (about 4%) are left out. Calls come from the whole dose curve; as a rule, active = well fitted activation curve with a large enough effect; inconclusive = small, poorly fitted or top-dose-only effect, or another doubt; inactive = no such curve, though single readings can be large or run the other way. The list shows a part of the results.
Assay: Primary qHTS for Identification of Small Molecule Activators of Huntingtin-Antisense Promoter Activity; note: nearly all actives have a fitted effect of over 55% in size
Details: HEK293 HTT-AS promoter firefly luciferase reporter, 24 h; series mostly up to 57.5 µM; activity change, positive = activation: at the top concentration
Method in brief: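 HEK293 cells carrying firefly luciferase reporters were seeded at 2,500 per well in Opti-MEM and cultured for 24 h. They were then treated with compounds at up to 57.5 uM final for 24 h at 37 degrees C before Dual-Glo luminescence readout.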

Activity change, positive = activation, inactive:
O=C1CC(c2nc(-c3ccc(Cl)cc3)no2)CN1c1ccc2c(c1)OCCO2 (centres undefined) -16.8%
O=C(CSc1nc2c([nH]c3ccccc32)c(=O)n1-c1ccccc1)N1CCc2ccccc21 -15.9%
Cc1csc(NC(=O)c2sc3nc4c(c(C(F)(F)F)c3c2N)CCC4)n1 -89.1%
CC(C)(C)CC(=O)NCC(c1ccc2c(c1)OCO2)N1CCN(c2ccccc2)CC1 (centres undefined) -15.9%
O=C(NCc1cccc(Br)c1)c1cnn(-c2ccc(F)cc2)c1-n1cccc1 -31.1%
CC(=O)c1ccc(NC(=O)c2cc(-c3ccc(C)s3)nc3ccccc23)cc1 -2.14%
CCC(C)NC(=O)Cn1c(=O)n(CCCCCC(=O)NCc2ccccc2Cl)c(=O)c2sccc21 (centres undefined) -22.7%
O=C(CSc1nccn1-c1ccc(Cl)cc1)Nc1ccc(Cl)c(Cl)c1 -15.6%
COc1cc(NC(=O)N2c3ccccc3Sc3ccccc32)cc(OC)c1 -28.6%
CCOC(=O)N1CCc2c(sc3c2c(=O)n(CCc2ccccc2)c(=O)n3CC(=O)Nc2ccc(C)cc2)C1 -1.84%
CCOC(=O)c1ccc(NC(=O)CSc2ccc3ccccc3n2)cc1 -3.49%
COc1ccccc1C(=O)NCC(c1cccnc1)N1CCc2ccccc2C1 (centres undefined) -16.5%
CN1CCc2c(sc(NC(=O)CSc3ccccc3)c2-c2nc3ccccc3s2)C1 -9.01%
CCCOC(=O)c1c(NC(=O)C(C)Sc2nc(-c3ccccc3)cc(C(F)(F)F)n2)sc(C(=O)N(C)C)c1C (centres undefined) -36.8%
Cc1cccc(N2CCN(C(=O)CN3C(=O)CSc4c3c(C)nn4-c3ccccc3)CC2)c1C -4.42%
O=C(Nc1ccc(Oc2ccccc2)cc1)C1CCN(S(=O)(=O)c2ccc(Cl)cc2)CC1 2.68%
CCOc1ccc(CCNC(=O)c2ccc3c(c2)c(C)c(C)n3Cc2ccccc2)cc1OCC -32.4%
COc1ccccc1NC(=O)CCCc1nnc2n(C)c(=O)c3sccc3n12 1.97%
CCOC(=O)c1cc(S(=O)(=O)NCc2ccc(C)cc2)[nH]n1 -11.7%
COc1ccc(CCN2C(=O)c3[nH]nc(-c4ccccc4O)c3C2c2ccc(OC)cc2)cc1 (centres undefined) -35.3%
O=S(=O)(c1ccc(Cl)cc1)c1nc(-c2ccco2)oc1SCc1ccc(F)cc1 -22.5%
C[C@]1(Cn2ccnn2)[C@H](C(=O)O)N2C(=O)C[C@H]2S1(=O)=O -3.63%
CSc1ccc(CCNC(=O)CCn2c(=O)c3cccn3c3ccc(F)cc32)cc1 -11.5%
CCOC(=O)c1c(NC(=O)c2cc3ccccc3c(=O)o2)sc2c1CCC(C)C2 (centres undefined) 0.162%
COc1ccc(-n2c(=O)c3ccccc3n(CC(=O)Nc3ccccc3OC)c2=O)cc1 -14.3%
COc1cc(OC)cc(C(=O)Nc2cc3c(cc2N2CCCC2)n(C)c(=O)c(=O)n3C)c1 -5.71%
Cc1ccc2c(CC(=O)Nc3c(C(=O)c4ccc(C)c(F)c4)oc4ccccc34)coc2c1 9.17%
CCOc1ccc(NC(=O)c2cnc3ccccn3c2=O)cc1 7.17%
CC(CN(C)C)C(C)(O)Cc1ccc(Cl)cc1 (centres undefined) -7.56%
CCN(CC)CCCCNc1ncc2cc(-c3cc(OC)cc(OC)c3)c(NC(=O)NC(C)(C)C)nc2n1 -10.2%
CC(=O)c1ccc(NC(=O)c2cnn(-c3cccc(F)c3)c2-n2cccc2)cc1 -19.5%
COc1ccc(S(=O)(=O)c2c(O)c3ccc(C(=O)NCc4ccc(F)cc4)cc3[nH]c2=O)cc1 -6.2%
COc1ccc(NC(=O)CSc2nc(-c3ccc(F)cc3)[nH]c2-c2ccc(C)cc2)cc1OC -22.1%
Cc1ccc(CNC(=O)c2cc(C)nc3c2c(C)nn3-c2ccc(C)cc2)cc1 -11%
Cc1ccc2c(c1)-c1ncc(C(=O)c3ccccc3O)cc1CO2 17.9%
Cc1cc(C)cc(NC(=O)CSc2nc(-c3ccccc3)c3cc(F)ccc3n2)c1 -4.77%
Cc1ccc(C(=O)NC2=NC(c3ccc(C)cc3)CC(=O)N2)cc1 (centres undefined) -0.867%
CC(=O)OCC(=O)[C@@]1(OC(C)=O)[C@@H](C)C[C@H]2[C@@H]3C[C@H](F)C4=CC(=O)C=C[C@]4(C)[C@@]3(F)[C@@H](O)C[C@@]21C -18.5%
CC(=O)c1ccc(NC(=O)c2cc3sccc3n2Cc2ccc(F)cc2)cc1 -21.4%
CCCCCOC(=O)CSc1ncnc2sc3c(c12)CCC(C)C3 (centres undefined) 2.38%
Cc1ccc2nc3sc(C(=O)NCCCN(C)c4ccccc4)cc3cc2c1 16.4%
COc1ccccc1CNC(=O)CCC1N=C2c3ccccc3N=C(SCc3ccc(C)cc3C)N2C1=O (centres undefined) -27.1%
COc1ccc(NC(=O)CN(c2cc(C)cc(C)c2)S(=O)(=O)c2c(C)noc2C)cc1Cl -36.8%
Fc1cccc(-n2ncc3c2ncn2nc(Cc4ccccc4)nc32)c1 -12%
COc1ccc(-c2nc(SCC(=O)Nc3ccc4c(c3)OCCO4)c(-c3ccc(C)cc3)[nH]2)cc1OC -32.5%
COc1ccc(NC(=O)CSc2ccc3nc(-c4ccccc4)cn3n2)cc1OC 5.98%
CC(C)NC(=O)c1nn(-c2ccccc2F)nc1CO -13.1%
CC(N=C(NC#N)Nc1ccncc1)C(C)(C)C (centres undefined) -7.29%
Cc1ccc(CNC(=O)CN2C(=O)COc3ccc(S(=O)(=O)Nc4ccccc4)cc32)cc1 -17.9%
CC(C)(C)OC(=O)N1CCC(c2nnc(SCc3cccc(Cl)c3)o2)CC1 -33.4%
Cc1ccc(C(=O)c2c(N)c(-c3nc(-c4ccc5c(c4)OCO5)cs3)c3ccccn23)cc1C 5.05%
Cc1cccc(N2CCN(C(=O)Cc3c(C(=O)O)c(C)cn3C)CC2)c1C -20.9%
Cc1ccc(C(=O)Nc2cc(-c3nc4ncccc4o3)ccc2C)c(C)c1 -2.56%
CC(=O)N1CCc2c(sc3c2c(=O)n(Cc2ccccc2)c(=O)n3Cc2ccc(C)cc2)C1 -13.8%
COC(=O)c1ccc(Cn2cnc3nc4c(cc3c2=O)CCCC4)cc1 10.6%
CCC(Cc1ccccc1)NC(=O)CN1C(=O)COc2ccc(S(=O)(=O)N3CCCCCC3)cc21 (centres undefined) -28.6%
Cc1cc2c(cc1NC(=O)c1ccccc1C)n(C)c(=O)c(=O)n2C -8.77%
COc1ccc(CCNC(=O)CCCn2c(=O)c3cccn3c3ccccc32)cc1OC 1.14%
CCOCCCNC(=O)C1CCN(C(=O)c2cc3sccc3n2C)CC1 -7.83%
CCc1ccc(CNC(=O)CCCN2C(=O)CCn3nc(-c4cccn4C)cc32)cc1 2.7%
COc1ccc(NC(=O)CCCN2C(=O)C(c3ccccc3)Oc3cccnc32)c(OC)c1 (centres undefined) -21.3%
CCc1ccc2oc(C(=O)Nc3cccc(Cl)c3C)cc(=O)c2c1 5.61% [at 11.5 µM, percent change from vehicle, -100% = no light]
CC(C)CCN(Cc1ccco1)C(=O)c1cc2c(s1)-c1ccccc1OC2 -25.9%
O=C(COc1ccccc1)OCc1cc(=O)n2nc(C3CC3)sc2n1 7.15%
COc1cc(-c2nnc(SCCOc3ccc(Cl)cc3)o2)cc(OC)c1OC -16.4%
O=C(Nc1ccc(O)c(-c2nc3ccccc3o2)c1)c1sc2ccccc2c1Cl -23.6%
O=C(CSCc1cnn(-c2ccccc2)c1-n1cccc1)NCc1ccc(Cl)cc1 -26%
Cc1nc2ccn(Cc3ccccc3)c(=O)c2cc1C(=O)N1CCN(c2ccccc2F)CC1 -20.9%
Cc1cc(F)ccc1S(=O)(=O)Nc1ccc2oc3c(c2c1)CC(C)CC3 (centres undefined) -30.5%
Cc1cccc(C2C=C(c3ccc(C)c(C)c3)Nc3nnnn32)c1 (centres undefined) -19.1%
CCOc1ccccc1C(=O)NC1(C(F)(F)F)NC(=O)N(CCc2ccc(OC)c(OC)c2)C1=O (centres undefined) -34.5%
COc1cc(OC)cc(-c2cc3nc(C)c(CCC(=O)NCc4ccccc4)c(C)n3n2)c1 -86.4%
CC(C)c1ccc(NC(=O)c2ccc3c(c2)CCN3S(=O)(=O)c2ccccc2)cc1 -14.6%
O=C(Nc1nnc(S(=O)(=O)N2CCCc3ccccc32)s1)c1ccccc1Cl -15.1%
CCOc1ccccc1CNC(=O)C1CCN(S(=O)(=O)c2ccc3[nH]c(=O)ccc3c2)CC1 -5.32%
CCOc1ccccc1NC(=O)Cn1ncc2c(=O)oc3ccc(C)cc3c21 -5.49%
CCOC(=O)c1c(C)oc2ncnc(Nc3ccc(OC)cc3OC)c12 4.52%
COc1ccccc1NC(=O)CSC1=Nc2ccccc2C2=NC(CCC(=O)NCCc3ccccc3)C(=O)N12 (centres undefined) -3.91%
COc1ccc(N2CCN(C(c3ccccc3)c3sc4nc(-c5ccco5)nn4c3O)CC2)cc1 (centres undefined) -13.8%
Cc1ccc(C(=O)N2CCc3cc(CNS(=O)(=O)c4cccs4)ccc32)cc1 -50.3%
CN1C(=O)Cc2cc(S(=O)(=O)NCCc3ccc(Cl)cc3)ccc21 -6.21%
COc1ccc(-c2noc(CSc3nnc(C)n3-c3ccc(C)cc3)n2)cc1OC -37%
Nc1nc2c(ncn2CCC(CO)CO)c(=O)[nH]1 -12.8%
Cc1ccc(-n2cc(C(=O)Oc3cccc(C)c3)c3ccccc3c2=O)cc1 -9.19%
COc1cccc(NC(=O)CSC2=Nc3ccccc3C3=NC(CCC(=O)NCCc4ccccc4)C(=O)N23)c1 (centres undefined) -24.6%
Cc1cccc(NC(=O)c2ccc3nc(C(C)C)oc3c2)c1C -37.3%
O=c1c2ccccc2n(Cc2ccccc2Cl)c(=O)n1CCc1ccccc1 -8.58%
CCOC(=O)c1ccc(Nc2nc3ccc(C(=O)c4ccccc4)cc3n3c(C)nnc23)cc1 -16.6%
CCCN(CCC)C(=O)Cn1c(=O)n(-c2ccc(CC)cc2)c(=O)c2ccc(C(=O)NCCc3ccccc3)cc21 -12.2%
CCCCCOc1ccc(Cn2c(=O)oc3ccccc32)cc1 0.312%
COc1cc(Cl)c(NC(=O)CCS(=O)(=O)c2ccc3c(c2)NC(=O)CO3)c(OC)c1 -1.93%
COc1ccc(CCNC(=O)c2ccc3c(c2)CCN3S(=O)(=O)c2ccc(C)cc2)cc1 -35.1%
CCCOc1ccc(C(=O)OCCN(CC)CC)cc1N
CC(C)(C)OC(=O)N1CCC(c2c(C(=O)NC3CCN(Cc4ccccc4)CC3)cnn2-c2ccc(F)cc2F)CC1 -6.44%
